Our source for the TGI and GI50 values is PubChem BioAssay (NCI).

SMILES strings stand for the structures. Values joined by “and” are separate entries in the source; they are usually repeats but may differ in a detail not shown here. Identical values can stand only once.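 Tested at 5 concentrations; 48 h exposure; 96-well plates; endpoints linearly interpolated, else capped at highest concentration. Here, GI50 denotes the concentration required for 50% inhibition of growth. TGI: concentration producing complete growth inhibition.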

This assay has as its system NCI-H322M lung. Briefly: NCI tumour cell line growth inhibition, 48 h.
Compound `COc1ccc(/C=N/N=C(N)N)c(C(=O)O)c1OC` registered a TGI greater than 10 µM. On to `Cc1cc2nc(N)n[n+]([O-])c2cc1C`, for which the TGI was greater than 100 µM.

On to `COC12OC3(C4OC41)C(C(=O)O[C@H]3CO[Si](C)(C)C(C)(C)C)C2S(=O)(=O)c1ccccc1` (stereo not given in full), for which the TGI is greater than 8.59 µM.

The compound `COc1ccc(NC(=O)CC(=O)n2nc(-c3ccccc3)c(N=Nc3ccc(C)cc3)c2-c2ccccc2)cc1` displayed a TGI greater than 96.1 µM. Take `C=C1CN(C(=O)c2cc3cc(OC)c(OC)c(OC)c3[nH]2)c2cc([N+](=O)[O-])ccc21`: the TGI was greater than 100 µM. For the compound `C/C(=C/CC[C@](C)(OC1OC(CO)C(O)C(O)C1OC1OC(C)C(O)C(O)C1O)[C@H]1CC[C@]2(C)[C@@H]1CC[C@@H]1[C@@]3(C)CC[C@H](O)C(C)(C)[C@@H]3C[C@H](O)[C@]12C)CO` (stereo not given in full), the TGI is greater than 100 µM. Turning to `Cc1ccc(NC(=O)C(=O)C2C(=O)C3=C(CC2(C)C)NC2C=CC=CC2S3)c(C)c1` (stereo not given), the TGI was greater than 100 µM. For `O=C(/C=C/c1ccco1)c1ccc(Nc2ccnc3cc(Cl)ccc23)cc1`, the GI50 is 10.9 µM and the TGI was greater than 100 µM.

Compound `CCCCOP(=O)(OCCCC)C(NS(=O)(=O)c1ccccc1)(C(=O)OCC)C(F)(F)F` (stereo not given) registered a TGI greater than 100 µM. Consider `CC(C)=CCC[C@@H](C)c1c(O)c(O)c(C)c2nc3ccccc3nc12`, for which the TGI was found to be 10.6 µM. Compound `O=C(NCCc1ccc(F)cc1)c1cc(/C=C/c2cc(O)ccc2O)ccc1O` displayed a TGI of 26.9 µM. For the compound `Cc1cc(C)c2nc(Nc3nc(C)c(C)c(=O)[nH]3)nc(C)c2c1`, the GI50 is 2.44 µM and the TGI was 9.14 µM.

`COC(=O)c1ccc2c(c1)[n+](=O)c(C(C)=O)c(C(F)(F)F)n2[O-]`: the GI50 was 4.28 µM and the TGI was determined as 13.7 µM. For `C=C1c2c(C)nn(-c3ccccc3)c2N(C)C23C[C@@H]1C1(C)c4c(C)nn(-c5ccccc5)c4N(C)C(C)(C[C@H]12)C3` (stereo not given in full) the same measures were 33.8 µM and greater than 100 µM.

`c1ccc(C[P+]2(c3ccccc3)CCCCC2)cc1` showed a TGI greater than 100 µM. Consider `COc1ccc(OC)c(-c2cc(-c3ccc(Cl)cc3)nn2-c2ccc(S(N)(=O)=O)cc2)c1`, for which the GI50 was 4.7 µM and the TGI came to 20 µM. Regarding `CC1=NN(C(=O)CC(=O)Nc2ccccc2)C(=O)C1N=Nc1ccc(S(N)(=O)=O)cc1` (stereo not given), the TGI was greater than 100 µM. `CS(=O)(=O)c1nc(-c2cc3c(c(S(C)(=O)=O)n2)CCC3)cc2c1CCC2` gave a TGI greater than 100 µM. The same measure, in the same setting: then `COc1cc(C(C)(C)C)c(OC(=O)/C=C/C(=O)O/C=C/[N+](=O)[O-])c(C(C)(C)C)c1`, with greater than 100 µM; and `COc1cc2c3c(c1OC)C1(C=CC(=O)C=C1)CC3N(C(=O)OC(C)(C)C(Cl)(Cl)Cl)CC2` (stereo not given), with 37.4 µM. The compound `c1ccc2c3c(c(N4CCNCC4)nc2c1)CCCC3` had a TGI of 30.9 µM.

Turning to `O=c1cc(N2CCOCC2)oc2c(-c3ccccc3)cccc12`, the GI50 was 9.09 µM; the TGI was > 68.2 µM and 55.3 µM. For the compound `CC(=O)c1c[nH]c2ccc(-c3ccnc(Nc4ccc(NC(=O)c5cccc(F)c5)c(CN5CCOCC5)c4)n3)cc12`, the GI50 was 0.184 µM. The compound `CC(C)CCC[C@@H](C)C1CCC2[C@@H]3CC=C4C[C@@H](OC(=O)CCC(=O)NCC[N+](C)(C)CCCS(=O)(=O)[O-])CC[C@]4(C)C3CC[C@@]21C` (stereo not given in full) displayed a TGI of 49.7 µM. As to `c1cc(C2O[C@H]3CCCN3[C@@H]2c2ccncc2)ccn1` (stereo not given in full), the TGI was greater than 100 µM.

Take `CN1CCN(c2nc(NCCNc3ccnc4cc(Cl)ccc34)c3ccccc3n2)CC1`: the GI50 is 2.97 µM and the TGI was 11.6 µM. In turn, `CN(CCN(C)Cc1ccc(Cl)c(Cl)c1)CCN1CCCC1` returned a TGI greater than 100 µM. Compound `C=CCn1c(-c2ccc(N=NNc3ccc(-c4n[nH]c(=S)n4CC=C)cc3)cc2)n[nH]c1=S` showed a TGI greater than 100 µM.
